Sequences and labels used below:
B1: PhoQ; a variant is named by its letters at X, in order, P23837 (parent)
chain: MKKLLRLFFPLSLRVRFLLATAAVVLVLSLAYGMVALIGYSVSFDKTTFRLLRGESNLFYTLAKWENNKLHVELPENIDKQSPTMTLIYDENGQLLWAQRDVPWLMKMIQPDWLKSNGFHEIEADVNDTSLLLSGDHSIQQQLQEVREDDDDAEMTHSVAVNVYPATSRMPKLTIVVVDTIPVELKSSYMVWSWFIYVLSANLLLVIPLLWVAAWWSLRPIEALAKEVRELEEHNRELLNPATTRELTSLVRNLNRLLKSERERYDKYRTTLTDLTHSLKTPLXXLQXXLRSLRSEKMSVSDAEPVMLEQISRISQQIGYYLHRASMRGGTLLSRELHPVAPLLDNLTSALNKVYQRKGVNISLDISPEISFVGEQNDFVEVMGNVLDNACKYCLEFVEISARQTDEHLYIVVEDDGPGIPLSKREVIFDRGQRVDTLRPGQGVGLAVAREITEQYEGKIVAGESMLGGARMEVIFGRQHSAPKDE

This is one part of the list.

The variants in the assay derive from B1. As to the kind of experiment: enrichment ratio after two sorts for PhoP signalling (ratio (wild type AVST 3.29)); higher = more functional. Particulars: with PhoP (E. coli).
For FAFR, the enrichment ratio is no more than 0.25.

For KVHR, the enrichment ratio was no more than 0.25.

Turning to WISQ, the enrichment ratio is no more than 0.25.

In the case of WCLW, the enrichment ratio was no more than 0.25.

Take INKC: the enrichment ratio is no more than 0.25.

Turning to LVGW, the enrichment ratio was no more than 0.25.

Consider DCGN, for which the enrichment ratio is no more than 0.25.

As for KLPH, the enrichment ratio is no more than 0.25.

As for WYYA, the enrichment ratio was no more than 0.25.

As for IKAL, the enrichment ratio is no more than 0.25.

As to SSCA, the enrichment ratio turned out to be 9.17.

Take VCSH: the enrichment ratio is no more than 0.25.

For the variant YNKL, the enrichment ratio was no more than 0.25.

On to VGVL, for which the enrichment ratio was no more than 0.25.

For FHLV, the enrichment ratio is no more than 0.25.

On to YRHG, for which the enrichment ratio is no more than 0.25.

CSRQ: the enrichment ratio was no more than 0.25.

Regarding NKSY, the enrichment ratio is no more than 0.25.

Consider LHHA, for which the enrichment ratio is no more than 0.25.

As to SNYY, the enrichment ratio worked out at 0.504.

As to GMCC, the enrichment ratio was no more than 0.25.

Consider EFTI, for which the enrichment ratio is no more than 0.25.

Consider SASS, for which the enrichment ratio was 9.93.

On to PEHY, for which the enrichment ratio was no more than 0.25.

Take EMNY: the enrichment ratio was no more than 0.25.

SQNS: the enrichment ratio is 1.7.

Regarding MYNI, the enrichment ratio is no more than 0.25.

Regarding DQFR, the enrichment ratio is no more than 0.25.

WYPG: the enrichment ratio is no more than 0.25.

Take LCNC: the enrichment ratio was no more than 0.25.

Turning to IIIH, the enrichment ratio was no more than 0.25.

TSKT: the enrichment ratio was no more than 0.25.

WAQL: the enrichment ratio was no more than 0.25.

For the variant AMTF, the enrichment ratio stood at 7.31.

On to TSYH, for which the enrichment ratio amounted to 5.77.

Take KFKY: the enrichment ratio was no more than 0.25.

In the case of RVID, the enrichment ratio was no more than 0.25.

Turning to ALII, the enrichment ratio was no more than 0.25.

On to GIYH, for which the enrichment ratio was no more than 0.25.

Regarding IWIL, the enrichment ratio was no more than 0.25.

In the case of NDMF, the enrichment ratio is no more than 0.25.

As to PKEQ, the enrichment ratio was no more than 0.25.

As to EHNR, the enrichment ratio is no more than 0.25.

For IDQW, the enrichment ratio was no more than 0.25.

Turning to YYTH, the enrichment ratio is no more than 0.25.

On to SIKG, for which the enrichment ratio is no more than 0.25.

Regarding LVKV, the enrichment ratio is no more than 0.25.

Turning to HPKG, the enrichment ratio was no more than 0.25.

For the variant SHWY, the enrichment ratio is no more than 0.25.

Turning to DHDV, the enrichment ratio is no more than 0.25.

For PSKD, the enrichment ratio was no more than 0.25.

For the variant YEFW, the enrichment ratio was no more than 0.25.

Regarding SYGV, the enrichment ratio was no more than 0.25.

In the case of SAKN, the enrichment ratio was no more than 0.25.

Regarding RAFD, the enrichment ratio was no more than 0.25.

For the variant RVSF, the enrichment ratio is no more than 0.25.

For the variant LYDT, the enrichment ratio was no more than 0.25.

Take RYQE: the enrichment ratio is no more than 0.25.

As for PSMN, the enrichment ratio was no more than 0.25.

As for QFPP, the enrichment ratio is no more than 0.25.

As to HDQH, the enrichment ratio was no more than 0.25.

Turning to LAYK, the enrichment ratio was no more than 0.25.

Turning to NGRQ, the enrichment ratio is no more than 0.25.

With YENS, the enrichment ratio was no more than 0.25.

For PPKI, the enrichment ratio is no more than 0.25.

GYNA: the enrichment ratio is no more than 0.25.

Consider IASS, for which the enrichment ratio is no more than 0.25.

As for VSSE, the enrichment ratio is no more than 0.25.

For KGPN, the enrichment ratio was no more than 0.25.

PTMH: the enrichment ratio was no more than 0.25.

HMGF: the enrichment ratio was no more than 0.25.

As to FSDQ, the enrichment ratio is no more than 0.25.

On to SHSV, for which the enrichment ratio was no more than 0.25.

WWDQ: the enrichment ratio was no more than 0.25.

With NNQD, the enrichment ratio is no more than 0.25.

Consider VSLR, for which the enrichment ratio was no more than 0.25.

For the variant YKRL, the enrichment ratio was no more than 0.25.

Take NHMH: the enrichment ratio was no more than 0.25.

PDHN: the enrichment ratio was no more than 0.25.

As for VQLA, the enrichment ratio was no more than 0.25.

Take HYPV: the enrichment ratio is no more than 0.25.

Regarding AGMG, the enrichment ratio was no more than 0.25.

Take YGNI: the enrichment ratio is no more than 0.25.

SLYF: the enrichment ratio is no more than 0.25.

For MMFT, the enrichment ratio is no more than 0.25.

Consider HWGV, for which the enrichment ratio was no more than 0.25.

As for HICK, the enrichment ratio was no more than 0.25.

With WYSD, the enrichment ratio was no more than 0.25.

For the variant YMTT, the enrichment ratio is no more than 0.25.

With ALSQ, the enrichment ratio was 16.2.

For FVYG, the enrichment ratio was no more than 0.25.

Take PCLM: the enrichment ratio is no more than 0.25.

For QCLV, the enrichment ratio was 1.13.

Turning to RYEW, the enrichment ratio is no more than 0.25.

On to IKIC, for which the enrichment ratio is no more than 0.25.

As to WMED, the enrichment ratio is no more than 0.25.

For the variant VWEI, the enrichment ratio was no more than 0.25.

For the variant VDER, the enrichment ratio was no more than 0.25.

For the variant HHVE, the enrichment ratio is no more than 0.25.

Take WVSD: the enrichment ratio was no more than 0.25.

For PESP, the enrichment ratio was found to be 1.07.

Take YVQN: the enrichment ratio was no more than 0.25.

For IVTW, the enrichment ratio was no more than 0.25.

For the variant RAPH, the enrichment ratio is no more than 0.25.

In the case of QDYQ, the enrichment ratio is no more than 0.25.

QKKG: the enrichment ratio was no more than 0.25.

For the variant RLLT, the enrichment ratio is no more than 0.25.

Regarding RAYH, the enrichment ratio was no more than 0.25.

Consider NYPC, for which the enrichment ratio is no more than 0.25.

For TVWY, the enrichment ratio is no more than 0.25.

In the case of APEY, the enrichment ratio is no more than 0.25.

For the variant GDAK, the enrichment ratio is no more than 0.25.

Regarding ANMA, the enrichment ratio stood at 3.57.

As for VVTR, the enrichment ratio is no more than 0.25.

Turning to METR, the enrichment ratio was no more than 0.25.

With HWIA, the enrichment ratio was no more than 0.25.

Regarding PSRD, the enrichment ratio was no more than 0.25.

As to GDRR, the enrichment ratio is no more than 0.25.

Take HACV: the enrichment ratio was no more than 0.25.

FQDN: the enrichment ratio is no more than 0.25.

GDCD: the enrichment ratio was no more than 0.25.

Take TNMK: the enrichment ratio was no more than 0.25.

Turning to RGTS, the enrichment ratio is no more than 0.25.

With KASK, the enrichment ratio was no more than 0.25.

In the case of LEHE, the enrichment ratio is no more than 0.25.

For the variant FNRF, the enrichment ratio was no more than 0.25.

Turning to DFEG, the enrichment ratio is no more than 0.25.

Consider GKPF, for which the enrichment ratio was 7.2.

In the case of REFV, the enrichment ratio was no more than 0.25.

LCDS: the enrichment ratio was no more than 0.25.

For QTPC, the enrichment ratio was no more than 0.25.

As for VCEG, the enrichment ratio was no more than 0.25.

For the variant DVYL, the enrichment ratio is no more than 0.25.

For the variant FHIP, the enrichment ratio is no more than 0.25.

For ERFV, the enrichment ratio was no more than 0.25.

As for MGDY, the enrichment ratio is no more than 0.25.

As to PRTQ, the enrichment ratio was no more than 0.25.

Turning to GKQS, the enrichment ratio is no more than 0.25.

Consider KCFW, for which the enrichment ratio is no more than 0.25.

Take HQDY: the enrichment ratio is no more than 0.25.

On to LPNI, for which the enrichment ratio is no more than 0.25.

Regarding RWIQ, the enrichment ratio is no more than 0.25.

Turning to PGCG, the enrichment ratio is no more than 0.25.

Consider VDGW, for which the enrichment ratio was no more than 0.25.

As for IAHW, the enrichment ratio is no more than 0.25.

For the variant KETG, the enrichment ratio was no more than 0.25.

Consider HPYC, for which the enrichment ratio was no more than 0.25.

As to VSME, the enrichment ratio was found to be 3.41.

With YHKS, the enrichment ratio is no more than 0.25.

PLLW: the enrichment ratio is no more than 0.25.

For the variant MWYA, the enrichment ratio was no more than 0.25.

For YHVI, the enrichment ratio was no more than 0.25.

On to EHWL, for which the enrichment ratio is no more than 0.25.

The record behind these values is a collection of fitness landscapes (doi:10.1126/science.1257360).
